Scores whose standard error is large were omitted. The source holds two more conditions with little spread; they are left out. In variant names, del marks residues removed and ins residues inserted between the two positions. For part of these data: How much ogerin was present is not stated here.
B1: GPR68, Q15743 (parent)
chain: MGNITADNSSMSCTIDHTIHQTLAPVVYVTVLVVGFPANCLSLYFGYLQIKARNELGVYLCNLTVADLFYICSLPFWLQYVLQHDNWSHGDLSCQVCGILLYENIYISVGFLCCISVDRYLAVAHPFRFHQFRTLKAAVGVSVVIWAKELLTSIYFLMHEEVIEDENQHRVCFEHYPIQAWQRAINYYRFLVGFLFPICLLLASYQGILRAVRRSHGTQKSRKDQIQRLVLSTVVIFLACFLPYHVLLLVRSVWEASCDFAKGVFNAYHFSLLLTSFNCVADPVLYCFVSETTHRDLARLRGACLAFLTCSRTGRAREAYPLGAPEASGKSGAQGEEPELLTKLHPAFQTPNSPGSGGFPTGRLA

How the values were obtained:
[1] = variants of: B1; assay: cAMP reporter score (Enrich2 score, wild type = 0); higher = more signal; HEK293T, FACS bins
[2] = variants of: B1; assay: surface expression score (Enrich2 score, wild type = 0); higher = more signal; HEK293T, FACS bins

| Variant | cAMP reporter score ([1]; pH 5.5) | cAMP reporter score ([1]; pH 6) | cAMP reporter score ([1]; pH 6, modulator: ogerin) | surface expression score [2] | cAMP reporter score ([1]; pH 6.5, modulator: ogerin) |
| --- | --- | --- | --- | --- | --- |
| L297I | -0.402 | 0.549 | -0.141 | -0.683 | – |
| L297K | -0.982 | -1.06 | -0.952 | -0.342 | -1.23 |
| L297M | 0.565 | – | 0.824 | 1.36 | 0.912 |
| L297P | -1.18 | -0.712 | -1.06 | -0.176 | -1.21 |
| L297Q | -1.3 | -0.675 | -1.11 | -0.159 | -1.27 |
| L297R | 0.058 | -0.6 | -1.02 | 0.057 | -1.38 |
| L297S | 0.196 | -0.877 | -0.195 | -0.369 | -0.609 |
| L297T | -0.348 | -1.42 | -1.03 | 0.265 | -0.565 |
| L297V | 0.376 | -1.44 | 0.343 | 0.594 | -0.857 |
| L297W | 0.282 | -0.951 | 0.635 | 1.07 | 0.117 |
| L297Y | 0.662 | -0.916 | -0.239 | -0.828 | -0.326 |
| A298C | -0.956 | -0.963 | -1.05 | -0.541 | -1.12 |
| A298D | -0.063 | -1.66 | -0.162 | 0.193 | -0.527 |
| A298E | 0.433 | 0.356 | 0.223 | 0.003 | 0.25 |
| A298F | 0.147 | -0.819 | -0.09 | -0.341 | -0.453 |
| A298G | 0.244 | -0.472 | 0.207 | 0.053 | -0.551 |
| A298H | 0.511 | -0.03 | 0.483 | -0.021 | -0.567 |
| A298I | 0.481 | -1.17 | -0.501 | 0.372 | 0.161 |
| A298K | 0.433 | 0.744 | 1.06 | 0.875 | 1.48 |
| A298L | -0.103 | 1.35 | -0.202 | 0.797 | 0.015 |
| A298M | 0.29 | -0.729 | 0.643 | 0.195 | 0.337 |
| A298N | 0.92 | 0.17 | 0.845 | 0.938 | 1.18 |
| A298P | 0.259 | -0.666 | -0.043 | 0.378 | -1.11 |
| A298Q | -0.23 | -1.07 | -0.721 | -0.782 | -0.284 |
| A298R | -0.422 | 0.267 | -0.815 | -0.997 | -0.547 |
| A298S | 0.217 | 0.319 | 0.464 | 0.184 | -0.154 |
| A298T | 1.56 | 0.51 | 0.822 | 0.652 | -0.554 |
| A298V | -0.565 | -0.126 | -0.334 | -0.342 | -0.275 |
| A298W | 0.923 | – | 0.653 | 1.19 | -0.107 |
| A298Y | 0.366 | -0.458 | 0.369 | -0.146 | -0.299 |

Source: the GPR68 mutational scans of Howard et al. (2025)
